Laboratory results published in paper PMC6919601, “Identification of Plasmodium dipeptidyl aminopeptidase allosteric inhibitors by high throughput screening” (PLoS ONE, 2019).
The whole screen tested about 110,000 compounds, of which about 230 (0.21%) showed an effect of 50% or more. This is one part of the list.

The molecules below were run against DPAP1 (Plasmodium falciparum, UniProt Q8IIJ9) (assay: primary screen, percent inhibition; read by cleavage of a fluorogenic dipeptide substrate; higher = more effect of the substance).
Parameters: species or system P. falciparum D10 trophozoite lysates; single well
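Further: 30 min substrate incubation versus DMSO and 10 µM JCP410 controls.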

DPAP1, sequence (Q8IIJ9 whole entry, looked up): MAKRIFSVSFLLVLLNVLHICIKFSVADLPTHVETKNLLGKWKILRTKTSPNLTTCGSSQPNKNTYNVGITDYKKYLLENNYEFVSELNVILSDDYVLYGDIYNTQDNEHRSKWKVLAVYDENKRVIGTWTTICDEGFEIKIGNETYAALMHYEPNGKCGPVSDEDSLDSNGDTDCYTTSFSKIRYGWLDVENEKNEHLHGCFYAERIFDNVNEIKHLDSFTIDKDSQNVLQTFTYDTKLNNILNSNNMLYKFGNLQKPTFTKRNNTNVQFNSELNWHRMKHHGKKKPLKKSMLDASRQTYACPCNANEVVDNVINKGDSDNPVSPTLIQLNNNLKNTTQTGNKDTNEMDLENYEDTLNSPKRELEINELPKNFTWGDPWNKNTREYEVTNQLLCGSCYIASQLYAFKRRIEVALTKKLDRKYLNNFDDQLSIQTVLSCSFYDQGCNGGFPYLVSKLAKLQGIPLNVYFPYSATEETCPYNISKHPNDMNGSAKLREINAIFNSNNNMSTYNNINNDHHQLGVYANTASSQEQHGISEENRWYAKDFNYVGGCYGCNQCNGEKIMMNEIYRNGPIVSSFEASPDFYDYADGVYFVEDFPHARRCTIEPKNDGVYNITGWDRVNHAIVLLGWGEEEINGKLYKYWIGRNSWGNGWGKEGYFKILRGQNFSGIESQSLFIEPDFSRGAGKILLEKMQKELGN

Row | Compound | % Inhibition @ 10 uM
1 | COc1ccc(C(=O)Nc2ccc(N3CCN(C)CC3)cc2)cc1 | 4%
2 | CC1CN(C(=O)c2c(NC(=O)c3ccccc3)sc3c2CCC(C(C)(C)C)C3)CC(C)O1 (stereo not drawn) | -1.4%
3 | Cc1ccc(CNC(=O)CSc2ccc(-c3cccs3)nn2)cc1 | -1.11%
4 | Cc1ccc(CNCc2ccccc2Cl)cc1 | 3.99%
5 | CCNC(=O)c1cc2c(=O)n3cc(C)ccc3nc2n(CCc2ccccc2)c1=N | 3.6%
6 | O=S(=O)(NC1(C(F)(F)F)OCCO1)c1ccccc1 | 1.62%
7 | CC(CCc1ccccc1)NCCN(C)C (stereo not drawn) | -0.0908%
8 | Nc1ccc(S(=O)(=O)Nc2nccc(/C=C/c3cccc(Br)c3)n2)cc1 | 0.687%
9 | COc1ccc(C2N3CC4(C)CN2CC(C)(C3)C4)cc1 (stereo not drawn) | 0.67%
10 | CN(C)c1ccnc(SCC(N)=O)c1C#N | -5.68%
11 | CC(=O)Nc1cccc(NC(=N)Nc2nc(C)cc(C)n2)c1 | 3.57%
12 | CCCN(CCO)C1CCN(Cc2ccccc2)CC1 | -9.34%
13 | Fc1ccc(N2CCN(Cc3ccoc3)CC2)cc1 | 7.03%
14 | O=C(NCc1cccnc1)C1CC(c2ccc(F)cc2)=NO1 (stereo not drawn) | -2.16%
15 | COc1cccc(C2C(C#N)=C(N)Oc3c2ccc2ccccc32)c1 (stereo not drawn) | 0.912%
16 | Cc1ccc(C)c(S(=O)(=O)NCC(=O)Nc2sc3c(c2C(N)=O)CCC(C)C3)c1 (stereo not drawn) | -1.28%
17 | CCC(C)NC(=O)CCNS(=O)(=O)c1ccc2[nH]c(-c3ccccc3)nc2c1 (stereo not drawn) | -4.68%
18 | CN(Cc1ccccc1)C(=O)Cn1cnc2c1c(=O)n(C)c(=O)n2C | -2.15%
19 | c1ccc(CNc2nnns2)cc1 | 19.3%
20 | Cc1sc(NC(=O)COc2ccc(Br)cc2)c(C(N)=O)c1C | -0.95%
21 | FC(F)(F)c1ccc(-c2noc(-c3ccc4c(c3)OCO4)n2)cc1 | -0.671%
22 | COc1ccc(CCNC(=O)CCN2C(=S)NC(C)(C)CC2C)cc1OC (stereo not drawn) | 2.73%

Row | Compound | % Inhibition @ 10 uM
23 | CC(=O)c1cc(-c2ccccc2)n(CC(=O)Nc2ccc(C)cn2)c1C | -1.88%
24 | Cc1cc(/C=C2\SC(=O)N(CCOc3ccc(F)cc3)C2=O)c(C)n1-c1cccnc1 | 4.18%
25 | COc1cccc(C(=O)NC(c2ccco2)c2c(O)ccc3ccccc23)c1 (stereo not drawn) | 1.86%
26 | COc1ccc(-n2cc(-c3ccccc3)c3c(NCC4CCCO4)ncnc32)cc1 (stereo not drawn) | 6.44%
27 | COC(=O)/C=c1\sc2ncnn2c1=O | 0.147%
28 | Cc1ccc(C(=O)N/C(=C/c2cccc(Oc3ccccc3)c2)C(=O)NCc2ccccc2)cc1 | -6.82%
29 | COc1ccc(C(CC(=O)Nc2nccs2)N2Cc3ccccc3C2=O)cc1OC (stereo not drawn) | -8.68%
30 | COc1cccc(CN2CCN(Cc3ccc(OC)c(OC)c3OC)CC2)c1 | -6.74%
31 | CCC(/N=c1\cc(-c2ccc(OC)cc2)oc2ccc(C)cc12)C(=O)O (stereo not drawn) | -0.169%
32 | CCc1c(O)nc(SCC(=O)N(CC)CC)n(-c2ccc(F)cc2)c1=O | -2.78%
33 | Clc1ccc(OCCn2ccnc2)c2ccccc12 | 1.57%
34 | COc1ccccc1C1=NC(c2ccccc2OC)c2c(ccc3ccccc23)N1 (stereo not drawn) | 2.55%
35 | CC12OC(=N)C(C#N)(C(c3ccco3)O1)C(C#N)(C#N)C2c1ccccc1 (stereo not drawn) | -1.24%
36 | Cc1c(-c2cccc(Cl)c2)nc2ccccc2c1C(=O)NCCCN1CCOCC1 | -1.57%
37 | CC(C)C[C@H](NC(=O)OCC1CC1)C(=O)NCC#N | -6.46%
38 | CC(C)c1ccc(CNC(=O)CSCC(=O)Nc2ccc3ccccc3c2)cc1 | 5.31%
39 | CCC(=O)Nc1nc2ccccc2n1CCN1CCOCC1 | 2.6%
40 | COc1ccc(CNC23CC4CC(CC(C4)C2)C3)cc1C | 1.8%
41 | OCCNc1nc(Nc2cccc(O)c2)nc2ccccc12 | -4.49%
42 | COc1ccccc1C1Nc2ccccc2N=C2CC(C)(C)CC(O)=C21 (stereo not drawn) | -4.41%
43 | CCOC(=O)c1cnc2c(Cl)cc(Cl)cc2c1NCCOCCO | 4.18%
44 | COc1ccc(N2CCN(C(=O)CCC(=O)O)CC2)cc1 | 1.67%

Row | Compound | % Inhibition @ 10 uM
45 | Cc1sc2nc(NCc3ccccc3)nc(O)c2c1C | -1.66%
46 | CCC(C)OC(=O)C1=C(C)NC(=O)CC1c1cc2c(cc1Br)OCO2 (stereo not drawn) | -4.16%
47 | CC1=CC(C)C(CN(CCO)CC2C(C)C=C(C)CC2C)C(C)C1 (stereo not drawn) | -1.42%
48 | Cc1cc(C)nc(NC(=O)COc2ccc(Cl)cc2C)c1 | -0.643%
49 | Cc1ccc(C)c(S(=O)(=O)NCc2ccncc2)c1 | -7.5%
50 | CC(C)CCOC(=O)c1c[nH]nc1[N+](=O)[O-] | -5.65%
51 | CC(C)c1[nH]nc2c1C1(CCN(Cc3ccccc3)CC1)C(C#N)=C(N)O2 | 2.32%
52 | c1ccc(CCN2CCC(N3CCN(Cc4ccccc4)CC3)CC2)cc1 | -1.81%
53 | CCCOc1ccc(-c2csc3ncn(CC)c(=O)c23)cc1 | 3.81%
54 | CCN(CC)c1ccc(C=C2C(=O)NC(=S)NC2=O)c(OC)c1 | 1.29%
55 | FC(F)(F)c1cccc(-n2cnnn2)c1 | -1.71%
56 | OCCC/N=c1\cc(O)oc2ccccc12 | -9.37%
57 | O=C1NC(=S)N/C1=C\c1cc([N+](=O)[O-])c(Cl)cc1Cl | -6.7%
58 | COC(=O)c1ccc(-c2ccco2)n1CC(=O)N1CCC(C(N)=O)CC1 | -1.67%
59 | Cc1nc2nc(SCC(=O)NCc3ccc4c(c3)OCO4)nn2c(C)c1Cc1ccccc1Cl | 4.14%
60 | CC1(O)C(=O)c2ccccc2N(c2ccccc2)C1=O (stereo not drawn) | 0.408%
61 | CCCCNC(=O)C1CCN(S(=O)(=O)c2ccc(Br)cc2)CC1 | -0.641%
62 | CCCN(CCC)S(=O)(=O)c1cc2nc(O)c(O)nc2cc1C | -0.0621%
63 | COc1cc2c(cc1OC)-c1nnc(-c3cc(OC)c(OC)c(OC)c3)n1C(C)(C)C2 | 0.317%
64 | O=C(NC(=O)c1c(F)cccc1F)Nc1c(F)cccc1F | 0.727%
65 | Cc1nc2sc(C(=O)N3CCC(C)CC3)c(N)c2c(C)c1Cl | 6.38%
66 | Oc1nc(CSc2nc[nH]n2)nc2ccccc12 | 2.99%
